# Laboratory results: the supplement of paper PMC3334620
# The full ranking holds about 33,000 sequences; the median of “E-score (-0.5 to 0.5)” is about -0.035, and the highest 2% start at about 0.34. Some of the results follow.
# Biological target: T1, Mot3 (UniProt P54785)
# T1 sequence: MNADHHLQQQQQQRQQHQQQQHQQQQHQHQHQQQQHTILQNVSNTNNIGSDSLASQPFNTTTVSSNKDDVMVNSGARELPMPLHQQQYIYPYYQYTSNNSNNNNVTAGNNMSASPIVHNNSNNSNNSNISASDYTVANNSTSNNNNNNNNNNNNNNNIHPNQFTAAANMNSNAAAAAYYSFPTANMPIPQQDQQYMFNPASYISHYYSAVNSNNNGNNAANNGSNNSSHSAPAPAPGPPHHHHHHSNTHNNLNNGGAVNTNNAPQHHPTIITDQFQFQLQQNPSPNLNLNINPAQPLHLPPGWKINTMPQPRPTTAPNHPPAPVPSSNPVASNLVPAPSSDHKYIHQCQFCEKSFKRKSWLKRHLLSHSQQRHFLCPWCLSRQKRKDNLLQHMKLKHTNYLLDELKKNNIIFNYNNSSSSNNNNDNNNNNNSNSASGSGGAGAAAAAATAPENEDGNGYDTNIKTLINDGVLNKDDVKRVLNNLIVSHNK
# Assay: PBM E-score (8-mer binding enrichment) (E-score (-0.5 to 0.5)); higher = stronger / more preferred TF binding; most listed sequences are background and not binding sites
# Settings: protein concentration: 200 nM; construct: GST-full length
# Protocol: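 Universal 'all 10-mer' protein binding microarrays (Agilent AMADID 015681) probed with GST-tagged S. cerevisiae TFs (full-length or DBD) made by in vitro transcription/translation (PURExpress), about 100-200 nM. Bound TF was detected with fluorescent anti-GST. Each ungapped 8-mer (which stands for itself and its reverse complement) is scored by the PBM enrichment score (E-score), a modified Wilcoxon-Mann-Whitney statistic from -0.5 to +0.5, computed with the Universal PBM Analysis Suite. Scale: above 0.35 generally sequence-specific binding.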
row,Sequence,PBM E-score
1,GGCGGTAA,0.0108
2,AATGCGGG,0.0272
3,CAGACATC,-0.16
4,ATGGAAGC,-0.191
5,ATTAGGAG,0.0663
6,ACAGTGAT,-0.0444
7,CCGATAAC,0.038
8,GGCGTACC,0.00915
9,AAGGTTCC,0.239
10,CCAAGTGA,-0.149
11,ATCGCACC,-0.117
12,CGTGATCA,-0.171
13,AGGAACTA,0.38
14,ATGCCAGG,-0.0858
15,ATAGGAAG,-0.0193
16,TCCACGGA,-0.0381
17,ATATGCCC,-0.182
18,AATCGTTA,0.108
19,AGATGTAA,0.272
20,CCCCTGAG,-0.231
21,CATACAGG,0.307
22,ATATCAAG,-0.0867
23,ATAAAGCA,-0.12
24,CGGTCCAA,-0.165
25,ACTGAGGG,-0.196

row,Sequence,PBM E-score
1,CTATCATC,0.0533
2,ACTATGGG,-0.168
3,ACTTGGTC,-0.0834
4,CCGCCACG,-0.179
5,CACCGTTC,0.0905
6,GTTTTCAA,0.236
7,GGAGCATA,-0.05
8,AAGCATAC,0.108
9,ACTGCCAC,-0.303
10,AGTCGTCC,-0.197
11,GGCGCTGA,-0.104
12,ACATGTCG,0.246
13,ATCATGGC,-0.282
14,TAGTGCCA,0.0115
15,ACGCTAGA,-0.168
16,ACCGAGGA,-0.111
17,CTTCACTA,-0.0387
18,AAGCAGTC,-0.0406
19,TATCCTAA,-0.0124
20,ACACCGGC,0.00195
21,CGACTGTA,-0.0244
22,AGTATGTA,0.289
23,TAGTAAAA,0.19
24,ATCAAGTA,0.107
25,ACAATCTG,0.0425

row,Sequence,PBM E-score
1,CCATACGA,-0.193
2,AAAATGCG,0.00885
3,CAAGGCGC,0.191
4,CTGAGATA,-0.00922
5,ACTGAGCT,-0.299
6,AAAGACTT,0.077
7,GTCAATGA,0.00322
8,GGGAAAGA,-0.0956
9,GGGTGCAA,-0.353
10,TAAAGATA,0.141
11,AAGTTTAC,0.235
12,CTATGGAG,-0.271
13,TATTCTGA,0.0534
14,AGACTGGG,-0.244
15,ACACCGGG,-0.101
16,ATAGTTTA,0.0652
17,CTAGACGA,-0.148
18,GCTTGAGA,-0.24
19,AGTACGGC,-0.0993
20,ATACCTAC,0.156
21,GAATTGCA,0.065
22,CCAGCTCC,-0.176
23,AGACTGCG,-0.225
24,ACTCGAAC,-0.0481
25,GATGACCC,-0.0211

row,Sequence,PBM E-score
1,GTCCGGCA,-0.104
2,ATTAAAAA,0.162
3,AGGCAACC,0.483
4,GTCTGAAC,-0.217
5,AAGAATTC,-0.0576
6,ACGTTTTC,0.159
7,AAGGCGAA,-0.0356
8,CTCGCACC,-0.156
9,TCGTGAGA,-0.179
10,AACCAGGC,0.0998
11,TCAAGTCA,0.0447
12,AAAGGCGC,0.371
13,ATGGGGGC,-0.0992
14,CAGTCCCC,-0.411
15,GGTCTGTA,0.0401
16,AGAGAGCG,-0.159
17,CACCAAGC,-0.0401
18,ATATGGGG,-0.253
19,AAGATACA,0.244
20,AAGAAGTA,-0.0249
21,CAACGGAA,0.103
22,GTACGGCA,0.0141
23,GCGGACCC,-0.296
24,CACAAATG,0.15
25,ACTAGACG,0.0561

row,Sequence,PBM E-score
1,CCAGTGAC,-0.133
2,ACCGGCAT,-0.239
3,ATATGAAC,0.134
4,CAGATTGG,-0.274
5,GTCACGGA,-0.0824
6,AGATTGCT,-0.22
7,CATCACAC,0.0832
8,CACCATCC,-0.0507
9,GATTCGAA,0.0361
10,GCCGATCA,-0.111
11,ACTAATTA,0.242
12,AGATACAC,0.138
13,ACCGGGCT,-0.136
14,AGTGATGC,-0.1
15,GTTGAATA,0.137
16,CATGCAGG,0.0359
17,CTTCGCCC,-0.201
18,GAACAATC,0.0225
19,AAATCAGC,0.0829
20,CCAACCGG,-0.275
21,AGTTCCTC,0.0435
22,TGGACCAA,-0.071
23,ATAGACAC,0.178
24,AATGGCTA,-0.0483
25,AGCCTCCT,-0.136

row,Sequence,PBM E-score
1,ACCCTAGG,0.0847
2,CCCATAAG,-0.233
3,CACCGACG,0.066
4,GTTAGCAA,0.0861
5,AGGCGAGC,-0.0541
6,GGGTATGA,-0.0865
7,CCAAAAGA,0.0627
8,ATTCGGCG,-0.249
9,AGGCGTAT,0.13
10,CGTACCTC,-0.144
11,ATATCCAC,-0.0283
12,AAATGAGC,0.00391
13,CCCGGCGG,-0.374
14,CGTCGTCC,-0.192
15,GCTAACAC,0.253
16,ACATGGGG,0.233
17,GGCGAACA,-0.191
18,CAACGCAA,0.256
19,GAGCGCTC,-0.331
20,ATAGAAAG,-0.107
21,GTTGGACA,0.101
22,ATACCGCG,-0.159
23,ATTTATTG,0.0307
24,AGTCGGAC,-0.0912
25,TACTATGA,-0.0335

row,Sequence,PBM E-score
1,AAAGTTAA,0.112
2,GTTGCCTA,0.488
3,CTGCCGCC,-0.274
4,CAAGTTGA,0.107
5,GACCATCA,-0.141
6,CAATTCTC,-0.0479
7,GATCTCGC,-0.262
8,ATTGTGTC,0.139
9,ACTTATAC,0.0535
10,AAGTAAGT,0.0115
11,AACGGCAG,-0.0848
12,CTTGAGAA,0.0551
13,AACGTTCC,0.194
14,GGAGTTTA,0.109
15,ATTTCGTA,0.15
16,ACAGATAG,0.00406
17,ATGCACTC,-0.061
18,ATACCAAA,-0.00456
19,CCCCGCCC,-0.0577
20,AACTTCTC,-0.0237
21,CCGATTTC,-0.014
22,AACAGTAT,0.0765
